Test results as given in the supplement of paper PMC4967469.

The cell lines below were run with NC(=O)c1ccc(N(C(N)=O)c2c(F)cccc2F)nc1-c1ccc(F)cc1F [VX-702] (assay: Viability of human cancer cell lines after 72 h of drug (GDSC screen)). Conditions: top dose 2 µM; top dose inferred.
Experimental: (§1)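 Human cancer cell lines in 384-well plates, medium with 10% serum, drug for 72 h over a 256-fold dose range (nine 2-fold or five 4-fold steps up to the top dose). Adherent lines were fixed and stained with the nucleic acid dye Syto60, suspension lines read with resazurin; signal relative to control wells, capped at 0 and 100%. One two-parameter sigmoid per drug and line, fitted in a mixed model over all curves with the slope shared within a line.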

| Cell Line | AUC | IC50 [µM] |
| --- | --- | --- |
| MS751 (cervix, adherent) | 0.99 | > 2 |
| NCI-H358 (lung adenocarcinoma, adherent) | 0.978 | > 2 |

Each cell line was assayed with O=C(c1cc(Cc2n[nH]c(=O)c3ccccc23)ccc1F)N1CCN(C(=O)C2CC2)CC1 [Olaparib] in the same assay as above. Conditions: top dose 5 µM; screen: GDSC drug entry 1017; top dose inferred.
Experimental: as §1

| Cell Line | AUC | IC50 [µM] |
| --- | --- | --- |
| HCC-827 (lung adenocarcinoma, adherent) | 0.97 | > 5 |
| HDQ-P1 (breast, adherent) | 0.985 | > 5 |
| HN (head and neck, adherent) | 0.955 | > 5 |
| HO-1-u-1 (head and neck, adherent) | 0.915 | > 5 |
| HOS (osteosarcoma, adherent) | 0.935 | > 5 |
| HT-3 (cervix, adherent) | 0.987 | > 5 |
| HT-1376 (bladder, adherent) | 0.976 | > 5 |
| Hep 3B2_1-7 (liver, adherent) | 0.987 | > 5 |
| Hs633T (fibrosarcoma, adherent) | 0.917 | > 5 |
| Hs746T (stomach, adherent) | 0.962 | > 5 |
| HuCCT1 (biliary tract, adherent) | 0.983 | > 5 |
| HuO-3N1 (osteosarcoma, adherent) | 0.973 | > 5 |
| IPC-298 (melanoma, adherent) | 0.988 | > 5 |
| JHH-2 (liver, adherent) | 0.985 | > 5 |
| JHH-4 (liver, adherent) | 0.987 | > 5 |
| JHH-7 (liver, adherent) | 0.927 | > 5 |
| KMRC-1 (kidney, adherent) | 0.985 | > 5 |

| Cell Line | AUC | IC50 [µM] |
| --- | --- | --- |
| KON (head and neck, adherent) | 0.96 | > 5 |
| KP-2 (pancreas, adherent) | 0.986 | > 5 |
| KP-3 (pancreas, adherent) | 0.984 | > 5 |
| KYM-1 (rhabdomyosarcoma, adherent) | 0.946 | > 5 |
| KYSE-520 (oesophagus, adherent) | 0.979 | > 5 |
| LCLC-103H (large cell lung carcinoma, adherent) | 0.981 | > 5 |
| LN-18 (glioma, adherent) | 0.994 | > 5 |
| LN-229 (glioma, adherent) | 0.986 | > 5 |
| LNZTA3WT4 (glioma, adherent) | 0.988 | > 5 |
| LU-135 (small cell lung carcinoma, suspension) | 0.96 | > 5 |
| MC-IXC (neuroblastoma, adherent) | 0.889 | 3.09 |
| MDA-MB-361 (breast, adherent) | 0.986 | > 5 |
| MDA-MB-453 (breast, adherent) | 0.985 | > 5 |
| MEL-JUSO (melanoma, adherent) | 0.964 | > 5 |
| MG-63 (osteosarcoma, adherent) | 0.95 | > 5 |
| MS751 (cervix, adherent) | 0.962 | > 5 |
| NCI-H358 (lung adenocarcinoma, adherent) | 0.984 | > 5 |

Same assay, conditions: top dose 10 µM; screen: GDSC drug entry 1495

| Cell Line | AUC | IC50 [µM] |
| --- | --- | --- |
| HDQ-P1 (breast, adherent) | 0.954 | > 10 |
| HN (head and neck, adherent) | 0.863 | 7.77 |
| HO-1-u-1 (head and neck, adherent) | 0.947 | > 10 |
| HOS (osteosarcoma, adherent) | 0.981 | > 10 |
| HT-3 (cervix, adherent) | 0.861 | 8.67 |
| HT-1376 (bladder, adherent) | 0.941 | > 10 |
| Hep 3B2_1-7 (liver, adherent) | 0.985 | > 10 |
| Hs633T (fibrosarcoma, adherent) | 0.895 | 8.24 |
| Hs746T (stomach, adherent) | 0.93 | > 10 |
| HuCCT1 (biliary tract, adherent) | 0.929 | > 10 |
| HuO-3N1 (osteosarcoma, adherent) | 0.932 | > 10 |
| IPC-298 (melanoma, adherent) | 0.985 | > 10 |
| JHH-2 (liver, adherent) | 0.978 | > 10 |
| JHH-4 (liver, adherent) | 0.969 | > 10 |
| JHH-7 (liver, adherent) | 0.942 | > 10 |
| KON (head and neck, adherent) | 0.918 | > 10 |

| Cell Line | AUC | IC50 [µM] |
| --- | --- | --- |
| KP-2 (pancreas, adherent) | 0.939 | > 10 |
| KP-3 (pancreas, adherent) | 0.968 | > 10 |
| KYM-1 (rhabdomyosarcoma, adherent) | 0.918 | > 10 |
| KYSE-520 (oesophagus, adherent) | 0.979 | > 10 |
| LCLC-103H (large cell lung carcinoma, adherent) | 0.99 | > 10 |
| LN-18 (glioma, adherent) | 0.989 | > 10 |
| LN-229 (glioma, adherent) | 0.875 | 9.75 |
| LNZTA3WT4 (glioma, adherent) | 0.951 | > 10 |
| LU-135 (small cell lung carcinoma, suspension) | 0.97 | > 10 |
| MC-IXC (neuroblastoma, adherent) | 0.775 | 2.95 |
| MDA-MB-361 (breast, adherent) | 0.975 | > 10 |
| MDA-MB-453 (breast, adherent) | 0.958 | > 10 |
| MEL-JUSO (melanoma, adherent) | 0.959 | > 10 |
| MS751 (cervix, adherent) | 0.93 | > 10 |
| NCI-H358 (lung adenocarcinoma, adherent) | 0.978 | > 10 |

These cell lines were tested with O=C1NC(=O)c2c1c(-c1ccccc1Cl)cc1[nH]c3ccc(O)cc3c21 [Wee1 inhibitor 681640] in the same assay as above. Conditions: top dose 2 µM; top dose inferred.
Experimental: as §1

| Cell Line | AUC | IC50 [µM] |
| --- | --- | --- |
| HCC-827 (lung adenocarcinoma, adherent) | 0.96 | > 2 |
| HDQ-P1 (breast, adherent) | 0.953 | > 2 |
| HN (head and neck, adherent) | 0.852 | 1.4 |
| HO-1-u-1 (head and neck, adherent) | 0.988 | > 2 |
| HOS (osteosarcoma, adherent) | 0.894 | 1.71 |
| HT-3 (cervix, adherent) | 0.948 | > 2 |
| HT-1376 (bladder, adherent) | 0.926 | > 2 |
| Hep 3B2_1-7 (liver, adherent) | 0.984 | > 2 |
| Hs633T (fibrosarcoma, adherent) | 0.898 | 1.69 |
| Hs746T (stomach, adherent) | 0.851 | > 2 |
| HuCCT1 (biliary tract, adherent) | 0.944 | > 2 |
| HuO-3N1 (osteosarcoma, adherent) | 0.971 | > 2 |
| IPC-298 (melanoma, adherent) | 0.9 | > 2 |
| JHH-2 (liver, adherent) | 0.914 | > 2 |
| JHH-4 (liver, adherent) | 0.987 | > 2 |
| JHH-7 (liver, adherent) | 0.984 | > 2 |
| KMRC-1 (kidney, adherent) | 0.977 | > 2 |

| Cell Line | AUC | IC50 [µM] |
| --- | --- | --- |
| KON (head and neck, adherent) | 0.746 | 0.622 |
| KP-2 (pancreas, adherent) | 0.954 | > 2 |
| KP-3 (pancreas, adherent) | 0.968 | > 2 |
| KYM-1 (rhabdomyosarcoma, adherent) | 0.921 | > 2 |
| KYSE-520 (oesophagus, adherent) | 0.904 | > 2 |
| LCLC-103H (large cell lung carcinoma, adherent) | 0.98 | > 2 |
| LN-18 (glioma, adherent) | 0.965 | > 2 |
| LN-229 (glioma, adherent) | 0.933 | > 2 |
| LNZTA3WT4 (glioma, adherent) | 0.988 | > 2 |
| LU-135 (small cell lung carcinoma, suspension) | 0.973 | > 2 |
| MC-IXC (neuroblastoma, adherent) | 0.86 | 1.01 |
| MDA-MB-361 (breast, adherent) | 0.964 | > 2 |
| MDA-MB-453 (breast, adherent) | 0.982 | > 2 |
| MEL-JUSO (melanoma, adherent) | 0.982 | > 2 |
| MG-63 (osteosarcoma, adherent) | 0.964 | > 2 |
| MS751 (cervix, adherent) | 0.989 | > 2 |
| NCI-H358 (lung adenocarcinoma, adherent) | 0.945 | > 2 |

The cell lines below were run with Cc1ccc(-n2nc(C(C)(C)C)cc2NC(=O)Nc2ccc(OCCN3CCOCC3)c3ccccc23)cc1 [BIRB 0796] in the same assay as above. Conditions: top dose 10 µM; top dose inferred.
Experimental: as §1

| Cell Line | AUC | IC50 [µM] |
| --- | --- | --- |
| HCC-827 (lung adenocarcinoma, adherent) | 0.984 | > 10 |
| HDQ-P1 (breast, adherent) | 0.983 | > 10 |
| HN (head and neck, adherent) | 0.966 | > 10 |
| HO-1-u-1 (head and neck, adherent) | 0.972 | > 10 |
| HOS (osteosarcoma, adherent) | 0.929 | > 10 |
| HT-3 (cervix, adherent) | 0.952 | > 10 |
| HT-1376 (bladder, adherent) | 0.984 | > 10 |
| Hep 3B2_1-7 (liver, adherent) | 0.937 | > 10 |
| Hs633T (fibrosarcoma, adherent) | 0.955 | > 10 |
| Hs746T (stomach, adherent) | 0.962 | > 10 |
| HuCCT1 (biliary tract, adherent) | 0.981 | > 10 |
| HuO-3N1 (osteosarcoma, adherent) | 0.966 | > 10 |
| IPC-298 (melanoma, adherent) | 0.987 | > 10 |
| JHH-2 (liver, adherent) | 0.986 | > 10 |
| JHH-4 (liver, adherent) | 0.978 | > 10 |
| JHH-7 (liver, adherent) | 0.975 | > 10 |
| KMRC-1 (kidney, adherent) | 0.981 | > 10 |

| Cell Line | AUC | IC50 [µM] |
| --- | --- | --- |
| KON (head and neck, adherent) | 0.912 | > 10 |
| KP-2 (pancreas, adherent) | 0.965 | > 10 |
| KP-3 (pancreas, adherent) | 0.945 | > 10 |
| KYM-1 (rhabdomyosarcoma, adherent) | 0.916 | > 10 |
| KYSE-520 (oesophagus, adherent) | 0.957 | > 10 |
| LCLC-103H (large cell lung carcinoma, adherent) | 0.99 | > 10 |
| LN-18 (glioma, adherent) | 0.96 | > 10 |
| LN-229 (glioma, adherent) | 0.985 | > 10 |
| LNZTA3WT4 (glioma, adherent) | 0.951 | > 10 |
| LU-135 (small cell lung carcinoma, suspension) | 0.978 | > 10 |
| MC-IXC (neuroblastoma, adherent) | 0.989 | > 10 |
| MDA-MB-361 (breast, adherent) | 0.954 | > 10 |
| MDA-MB-453 (breast, adherent) | 0.969 | > 10 |
| MEL-JUSO (melanoma, adherent) | 0.864 | > 10 |
| MG-63 (osteosarcoma, adherent) | 0.976 | > 10 |
| MS751 (cervix, adherent) | 0.99 | > 10 |
| NCI-H358 (lung adenocarcinoma, adherent) | 0.889 | > 10 |

The IC50 comes from the fitted curve, where viability falls to half of the control; a fit beyond the top or the lowest dose is shown as a bound at that dose. AUC, from the same fit, is the share of area under the viability curve across the 256-fold dose range; values near 1 show little effect. Any top dose called inferred was calculated from the reported fits. For part of these data: Where an entry number is given, a second screen of the drug exists; the two often differ.
